Results from PubChem BioAssay AID1347165 (National Center for Advancing Translational Sciences (NCATS), 2019).
About 5,700 (2.6%) of roughly 220,000 compounds were called active. The shares of active, inactive and inconclusive entries below differ from those in the screen. The call rests on the fitted dose curve; in most records, active means well fitted inhibition curve with a large enough effect; inconclusive means small, poorly fitted or top-dose-only effect; inactive means no such curve, though single readings can be large or run the other way. Where the call is inconclusive, the potency comes from a doubtful curve fit.

Target: Lysine-specific demethylase 5B (Homo sapiens) (UniProt Q9UGL1)
Test: Primary screen for KDM5B Histone Demethylases FDH-coupled qHTS; further: nearly all actives have a fitted effect of over 70% in size; on activity change, negative = inhibition: 0% is about no effect
Conditions: FDH-coupled NADH fluorescence (FDH is formaldehyde dehydrogenase); activity change, negative = inhibition: at 57.7 µM (top of the series) unless noted
Method in brief: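 Here, H3K4me3 peptide (12.5 µM in substrate mix) is demethylated by KDM5BΔAP, 200 nM final, after 10 min compound exposure. Formaldehyde product is coupled through FDH (0.25 U/mL in mix) to NADH fluorescence; 30-min ΔRFU feeds dose-response curves.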
Potency means the concentration at half of the fitted maximal effect; tags describe the fitted curve by direction and shape.

Sequence of UniProt Q9UGL1 (Q9UGL1 whole entry, looked up): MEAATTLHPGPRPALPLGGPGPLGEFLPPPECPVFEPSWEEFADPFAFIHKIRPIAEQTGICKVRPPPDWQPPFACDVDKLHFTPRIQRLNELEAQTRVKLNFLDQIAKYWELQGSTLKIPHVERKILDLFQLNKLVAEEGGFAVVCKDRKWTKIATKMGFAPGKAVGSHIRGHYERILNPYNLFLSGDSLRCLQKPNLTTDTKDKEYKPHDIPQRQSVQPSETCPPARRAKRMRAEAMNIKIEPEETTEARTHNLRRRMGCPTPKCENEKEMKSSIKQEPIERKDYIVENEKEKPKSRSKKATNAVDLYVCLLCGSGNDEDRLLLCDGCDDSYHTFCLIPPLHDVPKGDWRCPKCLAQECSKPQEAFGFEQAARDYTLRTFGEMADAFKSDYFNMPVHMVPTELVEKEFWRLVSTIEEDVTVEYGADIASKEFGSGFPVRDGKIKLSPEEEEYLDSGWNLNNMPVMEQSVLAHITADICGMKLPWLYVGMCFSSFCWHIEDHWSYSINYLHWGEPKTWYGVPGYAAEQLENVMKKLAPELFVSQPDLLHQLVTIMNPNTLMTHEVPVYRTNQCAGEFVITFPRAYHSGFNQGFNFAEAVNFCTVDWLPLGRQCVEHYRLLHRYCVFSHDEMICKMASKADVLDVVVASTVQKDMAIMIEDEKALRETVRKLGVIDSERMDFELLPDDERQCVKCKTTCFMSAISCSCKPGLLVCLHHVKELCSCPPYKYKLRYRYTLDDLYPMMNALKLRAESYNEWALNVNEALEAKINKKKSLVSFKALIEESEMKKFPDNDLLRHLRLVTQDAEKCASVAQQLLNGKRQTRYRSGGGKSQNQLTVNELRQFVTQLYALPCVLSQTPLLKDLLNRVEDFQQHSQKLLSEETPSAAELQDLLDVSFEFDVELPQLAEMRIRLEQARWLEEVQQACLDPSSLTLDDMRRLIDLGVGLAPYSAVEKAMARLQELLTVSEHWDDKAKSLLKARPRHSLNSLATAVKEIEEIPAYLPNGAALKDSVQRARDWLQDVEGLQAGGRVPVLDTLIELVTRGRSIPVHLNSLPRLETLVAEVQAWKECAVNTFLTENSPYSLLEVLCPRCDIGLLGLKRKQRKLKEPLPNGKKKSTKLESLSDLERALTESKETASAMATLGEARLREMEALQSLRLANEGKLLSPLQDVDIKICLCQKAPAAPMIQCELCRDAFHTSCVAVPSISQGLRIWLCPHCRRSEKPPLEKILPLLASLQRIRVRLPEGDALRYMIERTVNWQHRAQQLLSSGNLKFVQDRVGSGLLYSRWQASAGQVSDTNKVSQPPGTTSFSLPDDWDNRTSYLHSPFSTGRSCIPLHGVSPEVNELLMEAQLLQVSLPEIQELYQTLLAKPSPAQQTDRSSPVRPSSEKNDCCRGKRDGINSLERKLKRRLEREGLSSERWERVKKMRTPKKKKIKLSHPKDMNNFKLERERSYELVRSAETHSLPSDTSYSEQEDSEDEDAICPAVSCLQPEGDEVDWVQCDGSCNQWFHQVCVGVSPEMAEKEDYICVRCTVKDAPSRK

SMILES	activity change, negative = inhibition	Potency
CCCNc1nc(-c2cc(C)n(NC(=O)c3nn(C)c(=O)c4ccccc34)c2C)cs1	inactive: -0.175%	
CCC(=O)Nc1ccc2nc(SCc3ccc(F)cc3)sc2c1	inactive: -9.64%	
COc1ccc(/C=C(/C#N)C(=O)c2c(Cl)cccc2Cl)cc1		inconclusive: 10 µM [inhibitor, partial curve, poor fit]
N#Cc1cccc(-c2cn3c(n2)N(C(=O)c2cccnc2)CCC3)c1		active: 35.5 µM
O=C(NCc1ccncc1)c1cccc2cccnc12		inconclusive: 11.2 µM [inhibitor, partial curve, poor fit]
O=C(O)C1C2C=CC(O2)C1C(=O)Nc1cc(C(F)(F)F)ccc1Cl (stereo not drawn)		inconclusive: 31.6 µM [inhibitor, single point]
CCc1c(C)sc(NC(=O)c2ccoc2C)c1C(N)=O		inconclusive: 10 µM [inhibitor, partial curve, poor fit]
O=C(Cc1ccc(O)cc1)N1CC(CNc2ccccc2)C2(C1)CN(c1ccccc1)C2 (stereo not drawn)		inconclusive: 14.1 µM [inhibitor, partial curve, poor fit]
Cc1cccc(C(=O)N2CC[C@H]3C(=O)NCCCCCCN(Cc4ccncc4)[C@@H]3C2)c1		inconclusive: 20 µM [inhibitor, partial curve, poor fit]
CCOC(=O)C1=C(C)N=C2SC=C(CC(=O)N3CCCC3)N2C1c1cccc(Cl)c1 (stereo not drawn)		inconclusive: 25.1 µM [inhibitor, partial curve, poor fit]
COc1cccc(CN2CC[C@@H]3C(=O)NCCCCCCN(Cc4ccncc4)[C@@H]3C2)c1		inconclusive: 28.2 µM [inhibitor, single point]
COc1ccc(-n2c3c(cc(-c4nc(-c5ccc(C)cc5)cs4)c2=O)C(=O)CC(C)(C)C3)cc1		inconclusive: 10 µM [inhibitor, partial curve, poor fit]
CCNC(=O)N1CC[C@H]2C(=O)NCCCCCCN(Cc3ccncc3)[C@@H]2C1		inconclusive: 25.1 µM [inhibitor, partial curve, poor fit]
CC(=O)c1ccc(OCCCC(=O)OCc2ccc(C#N)cc2F)cc1	inactive: 3.67%	
CCC(CC)C(=O)NC[C@H]1O[C@@H](CC(=O)N2CCN(c3ccccn3)CC2)[C@H](O)[C@@H]1O		active: 31.6 µM
CC1(COc2ccccc2)COc2ccc(C(=O)Nc3ccccc3)cc2N1 (stereo not drawn)		inconclusive: 39.8 µM [inhibitor, partial curve, poor fit]
CC(C)=CC(=O)Nc1cccc2c1CCCC2	inactive: 23.7%	
COCCN1C(=O)c2ccccc2C(C(=O)NCCC2=CCCCC2)C12CCCC2 (stereo not drawn)		inconclusive: 15.8 µM [inhibitor, partial curve, poor fit]
COc1ccc2c(C)c(CC(=O)Nc3ccc(F)cc3F)c(=O)oc2c1OC	inactive: -20.7%	
O=c1cc(-c2ccccc2)n2c(SCc3ccc(Cl)cc3)nnc2[nH]1		inconclusive: 31.6 µM [inhibitor, single point]
Cc1c(C)n(Cc2ccccn2)c2ncnc(NCc3ccccn3)c12	inactive: -4.32%	
Cc1ccc(NC(=O)C23CCC(C)(C(=O)C2)C3(C)C)c(C)c1 (stereo not drawn)	inactive: -33.8%	
O=C(c1n[nH]c2c1CCCCCC2)N1CCC(c2nc(C3CCOCC3)no2)C1 (stereo not drawn)		inconclusive: 25.1 µM [inhibitor, single point]

SMILES	activity change, negative = inhibition	Potency
O=c1ncn(CC2CC2)c2ccc(-c3ccc(F)cc3)nc12		active: 35.5 µM
O=C(c1ccc2c(c1)OCO2)N1CCC2(CC1)NC(=O)N(c1ccccc1Cl)N2		inconclusive: 35.5 µM [inhibitor, single point]
c1ccc(CN2CCNc3cnc(Nc4ccc(N5CCOCC5)cc4)cc3C2)cc1		inconclusive: 10 µM [inhibitor, partial curve]
CCc1nccc(-c2c(-c3ccccc3)ncn2CCN2CCCCC2CO)n1 (stereo not drawn)		inconclusive: 17.8 µM [inhibitor, single point]
Cn1c(OCc2cccnc2)nc2c1c(=O)n(Cc1cccc(Cl)c1)c(=O)n2C	inactive: -4.12%	
CCC1Oc2ccc(NC(=O)c3c(F)cccc3F)cc2CN(Cc2ccc3c(c2)OCO3)C1=O (stereo not drawn)		inconclusive: 22.4 µM [inhibitor, partial curve, poor fit]
O=C(Cc1cccc(C(F)(F)F)c1)N1CCN(c2nnc3ccc(Cl)cn23)CC1		active: 25.1 µM
Cc1cc(C)cc(OC(=O)c2cc(-c3ccc4c(c3)OCCO4)on2)c1		inconclusive: 35.5 µM [inhibitor, partial curve, poor fit]
COCCn1c(=O)c2sccc2n(CC(=O)NC2CCCCC2)c1=O	inactive: -5.3%	
CC1CCC(NC(=O)c2cccc(C#N)c2)CC1 (stereo not drawn)	inactive: 25.1%	
COc1ccc(CN2CCc3nc(C(=O)Nc4ccc(Cl)cc4)oc3CC2)cc1OC		inconclusive: 28.2 µM [inhibitor, single point]
CC1(C(=O)N2CCCC2)CCCc2cnc(Nc3ccccc3)nc21 (stereo not drawn)	inactive: -13.2% [at 86.2 µM]	
Cc1cc(C)c(CNC(=O)c2cc(-c3cnn(C)c3C)cc3c2OCCN3C(C)C)c(=O)[nH]1		inconclusive: 28.2 µM [inhibitor, single point]
CCOc1ccccc1-c1noc(-c2nnn3c2COC(c2cccc(OC)c2)C3)n1 (stereo not drawn)	inactive: -18.8%	
CC1CCN(C(=O)CN2CCSc3ccc(S(=O)(=O)N(C)C)cc32)CC1		inconclusive: 22.4 µM [inhibitor, single point]
CCn1cc(S(=O)(=O)N2CCCC(c3nc(-c4cnccn4)no3)CCNC(=O)CC2)cn1 (stereo not drawn)		inconclusive: 25.1 µM [inhibitor, partial curve, poor fit]
O=C(C1CCN(S(=O)(=O)c2cccc3nonc23)CC1)N1CCN(c2ccc(F)cc2)CC1		inconclusive: 11.2 µM [inhibitor, partial curve, poor fit]
COc1cc(CN2CCCCC2C)ccc1OC(F)F (stereo not drawn)	inactive: 23.6%	
CC(Oc1ccccc1)C(=O)NCc1ccnc(N(C)C)c1 (stereo not drawn)		inconclusive: 31.6 µM [inhibitor, single point]
Cc1cc(C)n(-c2nc3ccccc3nc2N2CCN(C(=O)c3ccccc3Br)CC2)n1		inconclusive: 39.8 µM [inhibitor, single point]
COc1ccc(CN[C@H]2[C@H](O)[C@H](O)C[C@@H]2c2cccnc2)cc1	inactive: -13.6% [at 86.2 µM]	
Cc1csc(NC(=O)CSc2c3c(nc4cc(Cl)ccc24)CCCC3)n1	inactive: 2.32%	
O=C(CCC(=O)N1CC2CCCN2c2ccccc21)NCc1ccccc1F (stereo not drawn)		inconclusive: 35.5 µM [inhibitor, single point]

SMILES	activity change, negative = inhibition	Potency
C[S+](=O)([O-])c1ccc(-c2cnc3[nH]cc(CC(=O)N4CCOCC4)c3c2)cc1		inconclusive: 56.2 µM [inhibitor, single point]
CCCNC(=S)Nc1ccc(C)cc1	inactive: 13.5%	
CCC1CCCCN1S(=O)(=O)c1ccc(NC(=O)c2cc(=O)c3cc(C)cc(C)c3o2)cc1 (stereo not drawn)	inactive: 1.82%	
Cc1nn(Cc2ccc(Cl)cc2)c(C)c1NC(=O)COCc1cc(-c2ccco2)on1	inactive: -0.053%	
Brc1ccccc1-c1nnc(SCc2nc3ccccc3o2)o1		inconclusive: 39.8 µM [inhibitor, single point]
O=C(NC1CC1)c1ccccc1OCC1CCCN(Cc2cccc3[nH]ccc23)C1 (stereo not drawn)		inconclusive: 15.8 µM [inhibitor, partial curve, poor fit]
COCCN1C(=O)CO[C@H]2CN(CCCc3ccccc3)C[C@H]21	inactive: -5.42% [at 86.2 µM]	
COc1ccc(-n2nc(C3CCN(C(=O)c4ccccc4C)CC3)[nH]c2=O)cc1	inactive: -18.7%	
OCc1cn(-c2ccccc2)nc1-c1cc2ccccc2o1		inconclusive: 25.1 µM [inhibitor, partial curve, poor fit]
COc1ccc2[nH]cc(CCNC(=O)C3CCCN(C(C)=O)C3)c2c1 (stereo not drawn)		inconclusive: 39.8 µM [inhibitor, single point]
COc1ccc(C2=C(C)C(=O)N(Cc3ccc(C(=O)NCc4ccccc4C)cc3)S2(=O)=O)cc1		inconclusive: 17.8 µM [inhibitor, partial curve, poor fit]
CCN(CC)CC(C)(C)NS(=O)(=O)c1ccc(Cl)cc1	inactive: 10.1%	
COc1ccccc1NC(=O)COc1nc(C(C)C)c2c(c1C#N)CCCC2	inactive: -0.131%	
CCOc1ccc(NC(=O)CCn2c(-c3ccc(F)cc3)cc(C(C)=O)c2C)cc1		inconclusive: 14.1 µM [inhibitor, partial curve, poor fit]
Cc1ccc(C2C=C(c3ccc(Cl)cc3)Nc3nc(NC(=O)CCC(=O)O)nn32)cc1 (stereo not drawn)		inconclusive: 3.98 µM [inhibitor, partial curve, poor fit]
CC(C(=O)O)n1c2ccccc2c2cnn(C)c(=O)c21 (stereo not drawn)		inconclusive: 22.4 µM [inhibitor, partial curve, poor fit]
COCCCNc1ccc2nnc(-c3ccccn3)n2n1		inconclusive: 31.6 µM [inhibitor, partial curve, poor fit]
Cc1ccc2c(C(=O)Nc3ccc(F)cc3)cnn2c1		inconclusive: 31.6 µM [inhibitor, single point]
COc1ccccc1CC(=O)N1CCC(Cc2nc(-c3ccc(F)cc3)no2)CC1	inactive: 28.1%	
CCOC(=O)c1ccc(Oc2c(C)oc3cc(O)ccc3c2=O)cc1		inconclusive: 31.6 µM [inhibitor, partial curve, poor fit]
Cc1ccc(N2C(=O)c3ccccc3NC23CCSC3)cc1 (stereo not drawn)		inconclusive: 25.1 µM [inhibitor, partial curve, poor fit]
O=C(NCCn1cc(SCc2ccc(C(F)(F)F)cc2)c2ccccc21)c1ccccc1F		inconclusive: 39.8 µM [inhibitor, single point]
